# Screen size: about 150,000 compounds; about 540 (0.36%) showed an effect of 50% or more. Some of the results follow.
# Test system: Plasmodium falciparum
# Experiment: Primary screen in NF54 nanoGlo assay, in single point, at 2uM, 72h; a lower Z score goes with more inhibition
# Format: functional, Erythrocyte
# Conditions: timepoint 72 hour
Compound,% Inhibition [%],Z score
CC1CC1C(=O)Nc1nc(-c2cnn(C)c2)ns1 (stereo not given),-5,0.8
CCn1cc(CN2CCn3c(C)nnc3[C@@H]2C(=O)N(C)C)c2ccccc21,-4,0.47
CC[C@H](N)C(=O)N(C)Cc1cccs1,-13,1.33
Cc1ccc(N(C(=O)c2nc3nc(C)cc(C)n3n2)C2CCCCC2)nc1,-4,0.76
O=C(NCc1cccc(C(F)(F)F)c1)c1cc(-c2ccccc2Cl)nn1-c1cccc(Cl)c1,-9,1.11
Cc1cc(NC(=O)CCC(N)=O)cnc1N1CCCC[C@@H]1C,-3,0.36
CC(=O)Nc1ncccc1OC(F)F,-12,1.11
CN1CCC(OCCCNC(=O)Nc2cccc(-c3ccco3)c2)CC1,-3,0.51
COCC1(C(=O)N2CC[C@@]3(CCCN(Cc4cccc(F)c4F)C3=O)C2)CCC1,-10,1.91
C=C1C2(C(=O)N3CCC(COC)C3)CCC(C2)C1(C)C (stereo not given),0,0.05
c1nc2cc(-c3noc(-c4cn(C5CCCCC5)nn4)n3)ccc2[nH]1,-13,1.69
CCn1cc(OCc2ccc(C#N)cc2OC)cn1,-14,1.44
Cc1noc([C@H](C)NC(=O)Nc2cccc(-c3cccs3)c2)n1,0,0.04
CCc1ccc(CN(C)c2nc(-c3ccccn3)nc3c2CCNC3)nc1,-1,0.12
O=C(Cc1ccc(F)cc1)Nc1cnoc1,-19,2.98
CC(C)Cn1cncc1CNCc1ccc(-c2cc[nH]n2)o1,-5,0.89
O=C(O)c1cccnc1CN1CCCC[C@@H]1Cc1cccc(Br)c1,-7,1.22
O=C1NCCN1C(=O)Nc1ccc2c(c1)N(C(=O)c1ccccc1)CCC2,6,-1.1
COCCn1cnnc1[C@H](C)NS(=O)(=O)c1ccc2cc(OC)ccc2c1,-13,1.23
CNC(=O)C(Cc1ccccc1)NCC1CCOc2ccccc21 (stereo not given),-7,0.61
CCc1nc(-c2cccc(NC(=O)c3cccc(N(C)C)c3)c2)no1,-21,3.59
COC1CCN(C(=O)NCc2ccc3[nH]cnc3c2)CC1,-12,2.23

Compound,% Inhibition [%],Z score
NC(=O)[C@]1(O)CCN(c2ncnc3[nH]ccc23)C1,-7,0.82
Cc1ccc(N2CCN(c3nccn4c(=O)n(CC(=O)NCc5ccccc5)nc34)CC2)cc1,-10,0.94
O=C1N(CCCc2ccccc2)CCC[C@@]1(O)CN[C@H]1CC[C@H](O)CC1,-6,0.83
Cc1noc(-c2ccc3c(c2)OCO3)c1C(=O)NCCC1(C)OCCO1,1,-0.12
O=S(=O)(c1ccc2c(c1)CCCC2)N1CCC2(CC1)NCCN=C2NC1CCCCC1,-1,0.19
COCCn1cnc2cc(NC(=O)C3CCCCC3)cc(C(=O)N3CCC(C)CC3)c21,8,-1.09
CCN1CCNC(=O)[C@@H]1Cc1nc(CCOC)nn1-c1cccc(Cl)c1,2,-0.29
CCc1ccc(OCCNC(C)(C)C)cc1,4,-0.52
COc1ccc(NC(=O)c2ccc3ccccc3n2)cn1,-16,2.92
CC(C)n1cnnc1C[C@H]1CCCN(C(=O)Cc2cccs2)C1,7,-0.94
CCCc1ccc(-c2nc(NC(=O)C3CCOCC3)sc2C)cc1,-4,0.59
CCO[C@@H](C)c1nccn1Cc1ncccc1C,7,-0.98
CC(C)C(=O)N1CCN(C/C=C/c2ccccc2)[C@@H]2CS(=O)(=O)C[C@@H]21,-12,1.48
CCCN(CCC)C(=O)C1CCOCC1,8,-1.46
CCNC(=O)N1CC(C(=O)NCc2ccccc2)CCC1c1ccc(F)c(C)c1 (stereo not given),-4,0.37
CCC1(CC)CCN(S(=O)(=O)N2CCC[C@@H]2COC)C1,-13,1.51
COc1cccc(-c2noc(N[C@@H](C)C3(S(C)(=O)=O)CC3)n2)c1,-6,0.55
Cc1ccc(CN(C)C(=O)c2cc(C3CC3)no2)o1,-12,1.74
O=S(=O)(NCCN1CCCC1)c1cnc2ccccc2c1,2,-0.17
CCN(Cc1csc(C)n1)C[C@H]1CCCCO1,2,-0.27
COc1cc(-c2ccccc2CN2CCOCC2)cc(OC)c1OC,2,-0.41
COc1ccc(CN2CCc3nc(N4CCCC4)ncc3C2)c(OC)c1OC,4,-0.54

Compound,% Inhibition [%],Z score
Cc1cnc(C2CCC2)n1CCNC(=O)C1CCCCC1,-10,1.2
O=C(C1CCCCC1)N1CC(c2nc(-c3ncccn3)no2)C1,-5,1.01
CN1CCCN(C(=O)c2ccc3nc(-c4ccc(F)cc4)cn3c2)CC1,-10,0.91
CC1(C)CCC(CNS(=O)(=O)c2ccco2)CC1,-9,1.14
CC1CCN(c2nc3c(c(N4CCCC4)n2)CN(C(=O)c2ccc(F)cc2F)CC3)CC1,-8,1.11
COc1cccc(-c2n[nH]c3c2CN(Cc2cccc(C)n2)CC3)c1,-9,1.66
Cc1cccc2sc(N3CC[C@@H]4OCC[C@@H]4C3)nc12,-19,1.92
Cc1nc2n(n1)CCN(c1ncc(C(F)(F)F)cc1Cl)C2,-2,0.45
CC(C)CCN1CCN(C(=O)COCCOc2ccccc2)CC1,-8,1.6
CCn1ncc2c1CCCC2NC(C)C(=O)N1CCC(C)CC1 (stereo not given),-6,0.72
Cc1ccccc1Cc1c(C(=O)N2CCCC2)c(=O)cc(C)n1Cc1ccccn1,4,-0.51
Cc1cc(CN(C)CC(=O)O)c(OC(F)F)cc1C,2,-0.28
CC(=O)c1ccc(N2CCN(C(=O)C(=O)c3cccn3C)CC2)cc1,-6,0.59
CN(C)[C@H]1CCN(C(=O)Nc2ccccc2-c2ccccc2)C[C@H]1CCC(=O)O,8,-1.41
C[C@@H](Cc1cc2ccccc2o1)NC(=O)CN1C(=O)CCC1=O,-11,1.88
O=C1CCN(C(=O)N[C@H](c2ccc(F)cc2)C2CCCC2)CCN1,-7,1.38
COc1cc(-c2nc(C(=O)N(C)Cc3ccccc3)cs2)ccc1OCc1cccc(Cl)c1,6,-0.71
O=C(C1=Cc2ccccc2OC=C1)N1C[C@H]2CC[C@@H](C1)N(CC1CC1)C2,-1,0.13
O=C(CCCc1cn[nH]c1)N1CCC(c2cc(O)ncn2)CC1,-11,1.1
CCOC(=O)CC1(NC(=O)Nc2c(-c3cccnc3)[nH]c3ccc(F)cc23)CCCCC1,-4,0.69
CC(C)C1OCCCC1CNC(=O)c1ccc(-c2ncn[nH]2)cc1 (stereo not given),-15,1.68
Cc1oc(Br)cc1C(=O)N1CCCC[C@H]1c1nc(=O)[nH][nH]1,-13,1.77

Compound,% Inhibition [%],Z score
CC(C)CN1C[C@H](OCc2cccnc2)CN(C(=O)c2cscn2)CC1=O,0,0.06
Cc1nn(C)c(C)c1[C@@H](OC(=O)c1ccncc1F)C(F)(F)F,-3,0.39
CC1CCN(S(=O)(=O)NCc2ccnc(N3CCN(c4ccc(F)cc4)CC3)c2)CC1,3,-0.51
Cc1ccc(NS(=O)(=O)c2cc(C(=O)N3CCC(C)CC3)n(C)c2C)cc1Cl,-1,0.11
COCCN(CC(=O)N(Cc1cccn1Cc1ccccc1)C1CCCCC1)C(=O)C(C)C,-15,1.78
O=C(c1ccc2[nH]nnc2c1)N1CCN(c2cnccn2)CC1,-5,0.92
COc1ccccc1C1(CNc2ncccc2C#N)CCOCC1,4,-0.54
COc1ccc(-c2noc(CCN(C(=O)Cc3ccc(F)cc3)C(C)C)n2)cc1OC,-9,1.72
CC(C)[C@H](NC(=O)c1ccco1)C(=O)N1CCC1,-3,0.26
CN[C@@H]1c2ccccc2N(C(=O)OC(C)(C)C)C[C@H]1O,-11,1.27
COCCN[C@H]1[C@@H]2OC[C@@H](O2)[C@@H](NCc2ccc(F)cc2)[C@@H]1O,-6,0.98
C[C@@H]1CN(c2cc([C@H]3C[C@@H](O)C3)ncn2)C[C@H](C)O1,5,-0.4
O=C([C@H]1CC(=O)N(C2CCCC2)C1)N1CCc2sccc2C1,-8,1.29
COCCNC(=O)N(CCc1cccc(F)c1)C1CC1,-8,1.37
CCC(=O)N1CCc2c(C(=O)Nc3ccc(OC)cc3OC)cccc21,-9,1.07
CCN1CCC2CCC(C1)N2C(=O)c1ccc(-c2ccc(F)cc2)cc1F (stereo not given),-6,0.64
Cc1cncc(CN2CCO[C@H](c3ccc(OC(F)F)cc3)C2)c1,-4,0.54
CN(CC(=O)NC1CCS(=O)(=O)C1)C1C=CCCCCC1 (stereo not given),-12,1.36
Cc1nnc2c(=O)n(CC(=O)NCC(C)C)c3cccnc3n12,-12,1.6

# Reference: ChEMBL document CHEMBL4888484, “Replenishing the malaria drug discovery pipeline: Screening and hit evaluation of the MMV Hit Generation Library 1 (HGL1) against asexual blood stage Plasmodium falciparum ,using a nano luciferase reporter read-out” (2022)
